Measured values as given in PubChem BioAssay AID2546 (National Center for Advancing Translational Sciences (NCATS), 2010).
Hit rate of the full screen: of about 310,000 compounds, about 11,000 (3.5%) were called active. Inconclusive results, whose numbers are uncertain, are shown with a selection of clear calls. Calls follow the shape of the dose curve; as a rule, active = well fitted inhibition curve with a large enough effect; inconclusive = small, poorly fitted or top-dose-only effect, or effect the other way; inactive = flat fitted curve, though single readings scatter. No potency is given beside an inconclusive call; the fits are too rough.
% is scaled to controls: 0 for no effect and ±100 for the full control effect; potency is read from the fitted curve at half-maximal effect; tags tell the direction and shape of the fitted curve.

Test: VP16 counterscreen qHTS for inhibitors of ROR gamma transcriptional activity;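 also: Gal4-VP16 expression switched on by copper sulfate through the metallothionein promoter; nearly all actives have a fitted effect of over 50% in size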
Settings: Drosophila S2 Gal4-VP16 UAS-luciferase, luminescence, 20 h; activity, negative = inhibition: at 53.6 µM (top of the series)
In the case of `COCCNC(=S)N(CCc1c(C)[nH]c2ccc(C)cc12)Cc1cc(OC)c(OC)c(OC)c1`, the “activity, negative = inhibition” value is reported as inactive: 3.08%. In the case of `CN1CCN(S(=O)(=O)c2ccc(Sc3nnnn3-c3ccccc3)c([N+](=O)[O-])c2)CC1`, the Potency is reported as inconclusive [inhibitor, single point]. With `CN1C(=O)/C(=N\OC(=O)c2cccc3ccccc23)c2ccccc21` the Potency was active: 11.2 µM. With `COc1cccc(/C=C2\C(=O)C(=O)c3ccccc32)c1` the “activity, negative = inhibition” value was inactive: -0.149%. In the case of `CCCCc1c(O)n(-c2ccccc2)[nH]c1=O`, the “activity, negative = inhibition” value is reported as inactive: 8.18%. For `CCOc1ccc(-c2nnc(-c3ccccc3)o2)cc1`, the Potency was inconclusive [inhibitor, partial curve]. In the case of `O=C(Nc1ccc(Cl)cn1)c1ccc2[nH]c(=O)c(=O)[nH]c2c1`, the “activity, negative = inhibition” value is reported as inactive: -2.8%. For `CCN(CC(O)CON=C1c2ccccc2-c2ccccc21)S(=O)(=O)c1ccc(Cl)cc1` (stereo not drawn), the Potency was inconclusive [inhibitor, single point]. For `CN(C)Cc1c(C(=O)N/N=C/C=C/c2ccccc2)nnn1-c1nonc1N`, the Potency was inconclusive [inhibitor, single point]. In the case of `CCOc1ccc(S(=O)(=O)N2CCN(c3ccc(C)cc3C)CC2)cc1`, the “activity, negative = inhibition” value is reported as inactive: -6.94%. With `O=C(Nc1cccc([N+](=O)[O-])c1)NC1CCCCCCC1` the Potency was inconclusive [activator, single point]. With `Cc1cccc(NC(=O)CCc2ccc(C)o2)c1` the Potency was inconclusive [inhibitor, single point]. For `CC(C)c1ccc(C(C)NC(=S)NC2CCCCC2)cc1` (stereo not drawn), the Potency was active: 2.82 µM. For `O=c1c(CCc2ccccc2)nc2cnc(N3CCNCC3)nc2n1Cc1ccc(F)cc1`, the Potency was inconclusive [inhibitor, full curve]. For `Cc1cc(NC(=O)COC(=O)C2CC(=O)N(c3cccc(C)c3C)C2)no1` (stereo not drawn), the “activity, negative = inhibition” value was inactive: 4.1%. In the case of `NNC(=S)NCc1ccc2c(c1)OCO2`, the Potency is reported as active: 8.91 µM. For `COc1cccc(C2=NN(C(=O)c3ccco3)C(O)(C(F)(F)F)C2)c1` (stereo not drawn), the Potency was inconclusive [inhibitor, single point]. For `CC1CN(Cc2cc(=O)[nH]c(C3CC3)n2)CC(C)O1` (stereo not drawn), the Potency was inconclusive [inhibitor, partial curve, poor fit]. In the case of `O=C(Nc1ccc(Cl)cc1)Nc1nc(-c2sccc2Br)cs1`, the Potency is reported as inconclusive [inhibitor, single point]. With `O=C(Nc1ccc([N+](=O)[O-])cc1)c1ccccc1F` the Potency was inconclusive [activator, single point]. With `CC(Sc1nc2cc([N+](=O)[O-])ccc2n1-c1cccc(C(F)(F)F)c1)C(=O)NC(N)=O` (stereo not drawn) the Potency was active: 20 µM. With `CC1=C(C)C(OCCBr)N(c2cc(O)c(Cl)cc2F)C1=O` (stereo not drawn) the “activity, negative = inhibition” value was inactive: 5.55%. With `O=C(O)c1ccccc1N/N=C\c1ccnc2ccccc12` the Potency was inconclusive [inhibitor, single point]. In the case of `Cc1cccc(-c2nc(CSCC(=O)N3CCN(c4ccccn4)CC3)c(C)o2)c1`, the “activity, negative = inhibition” value is reported as inactive: -22%. For `O=C(Nc1nccs1)c1ccc(CSc2ccccc2)o1`, the Potency was inconclusive [inhibitor, single point]. For `O=C(Nc1cccc(-c2cccc(Cl)c2)c1)C1CCN(Cc2ccon2)CC1`, the Potency was inconclusive [inhibitor, single point]. In the case of `CCc1ccc(-n2cc(-c3ccc(F)cc3)[n+]3c2SCCC3)cc1`, the Potency is reported as inconclusive [inhibitor, single point]. For `COC(=O)c1ccc(CO/N=C/c2ccc(OC)cc2)o1`, the “activity, negative = inhibition” value was inactive: -6.28%. With `CCOC(=O)c1ccc(NC(=S)N(CCCN2CCN(CC)CC2)Cc2cccs2)cc1` the “activity, negative = inhibition” value was inactive: -8.22%. With `COc1ccc(OC)c(S(=O)(=O)NNC(=S)Nc2ccc3c(c2)OCO3)c1` the Potency was inconclusive [inhibitor, single point]. In the case of `CCn1c(-c2cc(-c3cccc(OC)c3)nc3ccccc23)n[nH]c1=S`, the Potency is reported as inconclusive [inhibitor, partial curve]. For `CCn1c(SC(=O)NC2CCCCC2)nnc1-c1cccs1`, the Potency was inconclusive [inhibitor, single point]. With `Cc1ccc(C)c(NC(=S)Nc2ccc(S(=O)(=O)Nc3ncccn3)cc2)c1` the Potency was inconclusive [inhibitor, partial curve]. With `COc1ccc(CCNC(=S)Nc2cccc(C)c2)cc1` the Potency was active: 10 µM. For `CC(C)CNC(=S)NC(=O)c1ccccc1Cl`, the Potency was active: 11.2 µM. For `O=C(NC(=S)Nc1ccccc1Cl)C1CC1`, the Potency was active: 11.2 µM. For `Cc1[nH]n(-c2cccc3ccccc23)c(=O)c1/C=N/NC(=O)c1cccc([N+](=O)[O-])c1`, the Potency was active: 3.55 µM. In the case of `CCC(CC)C(=O)Nc1cccc(-c2nc3ccccc3o2)c1`, the “activity, negative = inhibition” value is reported as inactive: 12.3%. For `COc1ccc(S(=O)(=O)N(CC(=O)N/N=C/c2cccs2)c2cc(C)cc(C)c2)cc1OC`, the Potency was inconclusive [inhibitor, single point]. In the case of `Cc1ccc(-c2cc(C(=O)O)c3ccccc3n2)s1`, the Potency is reported as inconclusive [inhibitor, single point]. In the case of `CCc1ccc(C(C)NC(=O)/C=C/c2ccc(Br)cc2)cc1` (stereo not drawn), the “activity, negative = inhibition” value is reported as inactive: -3.08%. For `O=C(NCc1cccs1)C1CCN(S(=O)(=O)c2cccs2)CC1`, the “activity, negative = inhibition” value was inactive: 1.02%. With `CCN(CC)c1ccc(/C=C(\C#N)C(=O)c2ccc(Br)cc2)cc1` the Potency was inconclusive [inhibitor, single point]. With `C/C=C(\C)[C@H](O)C[Si](C)(C)c1ccccc1` the “activity, negative = inhibition” value was inactive: -0.62%. For `O=C(NC(=S)Nc1ccc(N2CCOCC2)cc1)c1cccc(Cl)c1Cl`, the Potency was active: 5.01 µM. With `CC(=O)C1=C(O)C(=O)N(CCCO)C1c1ccccc1` (stereo not drawn) the “activity, negative = inhibition” value was inactive: -3.39%. In the case of `COCCNC(=O)c1ccc(CSc2nc3ccccc3s2)cc1`, the Potency is reported as inconclusive [inhibitor, single point]. With `CC(C)CCNc1nc(N)c([N+](=O)[O-])c(N2CCCCCC2)n1` the Potency was inconclusive [inhibitor, single point]. For `OC(CNCCc1ccc(C(F)(F)F)cc1)COc1cccc2ccccc12` (stereo not drawn), the Potency was active: 12.6 µM. With `C/C(=N\NC(=S)NCc1ccccc1)c1cccs1` the Potency was active: 2 µM. For `CCOc1c(Br)cc(/C=N\NC(=O)c2ccccc2)cc1OC`, the Potency was inconclusive [inhibitor, single point]. With `COc1ccccc1NS(=O)(=O)c1ccc2c(c1)NC(=O)C(C)S2` (stereo not drawn) the Potency was inconclusive [inhibitor, full curve, poor fit]. With `COc1ccc(NC(=O)CN(C)CC(=O)Nc2ccc3c(c2)CCC3)cc1` the “activity, negative = inhibition” value was inactive: 6.88%. For `Cc1cc(S(=O)(=O)Nc2ccc(C(=O)N3CCN(C(=O)c4ccco4)CC3)cc2)ccc1F`, the Potency was inconclusive [inhibitor, single point]. For `CN(CC(=O)Nc1ccc(Cl)cc1)CC(=O)Nc1ccc(C(N)=O)cc1`, the “activity, negative = inhibition” value was inactive: 7.38%. For `Cc1ccc(SCc2cc(=O)[nH]c(N3CCN(Cc4ccc5c(c4)OCO5)CC3)n2)cc1`, the Potency was inconclusive [inhibitor, single point]. For `O=C(CN1CCCCC1)Nc1ccc(N2CCCCCC2)cc1`, the “activity, negative = inhibition” value was inactive: 7.74%. For `Cc1onc(-c2ccccc2Cl)c1C(=O)NCc1ccco1`, the “activity, negative = inhibition” value was inactive: 10.4%. For `CCn1c(SCC(=O)N2CCCc3ccccc32)nnc1-c1cccs1`, the Potency was inconclusive [activator, single point]. With `Cn1c(NN)nc2sc3c(c2c1=O)CCC3` the Potency was inconclusive [inhibitor, single point]. With `Cc1ccc(C)c(S(=O)(=O)N2CCN(C(=O)C(C)Sc3ccccc3)CC2)c1` (stereo not drawn) the “activity, negative = inhibition” value was inactive: -0.631%. In the case of `COc1ccc(-c2noc(C3CCCN(C(=O)c4c(F)cccc4F)C3)n2)cc1OC` (stereo not drawn), the Potency is reported as inconclusive [activator, single point]. In the case of `O=C(c1ccc(C(F)(F)F)cc1)C1CCCN(C(=O)Cn2cncn2)C1` (stereo not drawn), the “activity, negative = inhibition” value is reported as inactive: 11.1%. For `Cc1cc(OCC(F)(F)C(F)(F)C(F)(F)C(F)(F)C(F)(F)C(F)F)nc(N)n1`, the Potency was inconclusive [inhibitor, partial curve]. With `Cc1nn(C)cc1C(C)NC(=O)c1cc(COc2cccc3cnccc23)on1` (stereo not drawn) the Potency was inconclusive [inhibitor, single point]. With `Cc1ccc(/C=N/n2c(C)nnc2C)o1` the Potency was inconclusive [activator, single point]. For `CN(C)c1ncc2nc(-c3cccc(C#N)c3)c(=O)n(C[C@H]3CCCO3)c2n1`, the “activity, negative = inhibition” value was inactive: 5.61%. In the case of `Cc1c(C(=O)Nc2nc3ccccc3[nH]2)oc2ccc(Br)cc12`, the Potency is reported as active: 4.47 µM. For `CC1CCC(NC(=O)CCC(=O)N2CC(C)Oc3ccccc32)CC1` (stereo not drawn), the Potency was inconclusive [inhibitor, single point]. For `CSc1ccccc1OCc1cc(C(=O)N2CCC[C@H]2C(N)=O)no1`, the “activity, negative = inhibition” value was inactive: -2.91%. In the case of `COc1cccc(C(=O)O/N=C(\N)Cc2ccc(Cl)cc2)c1`, the Potency is reported as active: 12.6 µM. With `NC(=O)COc1ccc2oc(-c3ccccc3)cc(=O)c2c1` the Potency was inconclusive [inhibitor, partial curve]. With `C=CCn1c(SCC(=O)O)nnc1-c1cccc(Cl)c1` the “activity, negative = inhibition” value was inactive: 3.65%. For `CN(C(=O)/C=C/c1ccc([N+](=O)[O-])s1)c1ccccc1`, the Potency was inconclusive [inhibitor, single point]. With `COc1ccc(N2CCC(CNC(=S)Nc3cccc(OC)c3)C2)cc1` (stereo not drawn) the Potency was active: 5.62 µM. In the case of `O=[N+]([O-])c1ccccc1/C=C/c1ccc2ccccc2n1`, the “activity, negative = inhibition” value is reported as inactive: 1.9%. In the case of `CC(=O)Nc1ccc(SCC(c2ccccc2)N2CCN(CCc3ccccc3)CCC2=O)cc1` (stereo not drawn), the “activity, negative = inhibition” value is reported as inactive: 8.31%. For `CCOC(=O)CNc1nc(Cl)nc(Nc2ccc(Cl)cc2)n1`, the Potency was inconclusive [inhibitor, full curve, poor fit].
